Experimental data taken from PubChem BioAssay AID485294 (National Center for Advancing Translational Sciences (NCATS), 2010).
The campaign covered roughly 370,000 compounds. About 150 (0.041%) were called active. This list was built around the results that the source calls inconclusive (neither active nor inactive); the mix of calls is not that of the screen. Calls follow the shape of the dose curve; as a rule, active = well fitted inhibition curve with a large enough effect; inconclusive = small, poorly fitted or top-dose-only effect; inactive = flat fitted curve, though single readings scatter. Potencies of inconclusive entries are left out as doubtful fits.

Molecular target: Beta-lactamase (Escherichia coli (strain K12)) (UniProt P00811)
Experiment: qHTS Inhibitors of AmpC Beta-Lactamase (assay with detergent); also: nearly all actives have a fitted effect of over 25% in size;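 as to activity change, negative = inhibition: 0% = no-compound wells and -100% = no-enzyme wells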
Conditions: AmpC hydrolysis of nitrocefin, absorbance 480 nm, 0.01% Triton; activity change, negative = inhibition: at 114 µM (top of the series)
Procedure, shortened: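 20 mM phosphate pH 7.0 + 0.01% (detergent screen) or 0.0001% Triton X-100; 5.3 nM AmpC reagent; cpd preinc 15 min RT; nitrocefin (800 uM stock) to start; A480 q20 s × 4 min; Activity was normalised to no-enzyme and no-compound control wells.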
Potency is read from the fitted curve at half-maximal effect; tags tell the direction and shape of the fitted curve.

Chain of UniProt P00811 (P00811 whole entry, looked up): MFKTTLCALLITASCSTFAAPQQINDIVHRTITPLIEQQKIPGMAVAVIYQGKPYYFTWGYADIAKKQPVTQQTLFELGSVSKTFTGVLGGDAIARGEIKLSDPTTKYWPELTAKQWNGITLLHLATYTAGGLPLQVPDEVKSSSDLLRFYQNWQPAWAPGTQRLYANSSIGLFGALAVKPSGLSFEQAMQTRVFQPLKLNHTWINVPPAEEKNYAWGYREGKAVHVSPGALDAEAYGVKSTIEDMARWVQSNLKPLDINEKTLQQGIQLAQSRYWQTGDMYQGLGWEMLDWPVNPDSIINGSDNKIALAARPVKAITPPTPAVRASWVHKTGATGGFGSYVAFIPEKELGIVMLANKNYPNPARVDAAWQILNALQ

| Structure (SMILES) | Potency | activity change, negative = inhibition |
| --- | --- | --- |
| Cc1cc(C)c(NC(=O)C2CC(=O)N(C(C)C)C2)c(C)c1 (stereo not drawn) | inconclusive [inhibitor, full curve, poor fit] | – |
| O=C(O)CCNS(=O)(=O)c1ccc2ccccc2c1 | inconclusive [inhibitor, partial curve, poor fit] | – |
| CCC(C(=O)OCC(=O)Nc1ccc2[nH]c(=O)[nH]c2c1)c1ccccc1 (stereo not drawn) | inconclusive [inhibitor, partial curve, poor fit] | – |
| O=C(N/N=C\c1cc([N+](=O)[O-])ccc1N1CCCC1)c1ccccn1 | – | inactive: -5.3% |
| Cc1cc(Cl)ccc1NS(=O)(=O)c1cc2[nH]c(=O)c(=O)[nH]c2cc1C | – | inactive: 17.3% |
| COc1ccc(-c2nc(N)n(C(C)=O)n2)cc1 | inconclusive [inhibitor, full curve] | – |
| Cc1ccc(CNC(=O)CCCn2c(=O)c3ccccc3n(CC(=O)NCc3ccco3)c2=O)cc1 | inconclusive [inhibitor, partial curve, poor fit] | – |
| Clc1ccc(Cc2noc(Cc3ccccc3)n2)cc1Cl | inconclusive [inhibitor, full curve] | – |
| COc1cccc2c(=O)cn[nH]c12 | inconclusive [inhibitor, full curve, poor fit] | – |
| CC1(C)CC2(CC(C)(C)N1)OC(=O)N1CCc3ccccc3C12C (stereo not drawn) | inconclusive [inhibitor, full curve] | – |
| CCOC(=O)C1CCN(C(=O)Cn2nc(CC)n3c(cc4occc43)c2=O)CC1 | – | inactive: 24.5% |
| Cc1c(C)c2c(c(C)c1O)CCC(C)(C(=O)O)O2 (stereo not drawn) | inconclusive [inhibitor, full curve, poor fit] | – |
| Cc1ccc(NC(=O)CSc2nnc(-c3ccco3)o2)cc1 | inconclusive [inhibitor, partial curve] | – |
| CCSc1nnc(Cn2c(=O)sc3ccccc32)n1C | inconclusive [inhibitor, full curve] | – |
| COc1ccc(NC(=O)c2nn(C)c(C(=O)Nc3ccc(OC)cc3)c2[N+](=O)[O-])cc1 | inconclusive [inhibitor, partial curve, poor fit] | – |
| O=c1cc(CNc2cc(Cl)ccc2Cl)nc2sccn12 | inconclusive [inhibitor, partial curve, poor fit] | – |
| O=C(c1cccs1)N1CCN(c2nc3ccc([N+](=O)[O-])cc3s2)CC1 | inconclusive [inhibitor, partial curve] | – |
| CCCN1C(C(=O)c2ccccc2)=C(OC(=O)C(C)(C)C)c2ccccc2S1(=O)=O | – | inactive: 16.1% |
| COC(=O)c1ccc(CSc2nc3c(c(=O)n2-c2ccccc2)SCC3)o1 | inconclusive [inhibitor, full curve, poor fit] | – |
| Cc1ccc(NC(=O)CN2CCN(C3CCCCC3)C(=O)C2=O)cc1C | – | inactive: 24.9% |
| COc1ccc(C(=O)c2coc3ccc(O)c(CN4CCCC4)c23)cc1 | inconclusive [inhibitor, partial curve, poor fit] | – |
| CN1CCN(C(=S)Nc2cccc(Cl)c2)CC1 | inconclusive [inhibitor, full curve] | – |
| COc1ccc(CCN(Cc2ccccn2)C(=S)Nc2cccc(C)c2)cc1OC | – | inactive: 0.45% |

| Structure (SMILES) | Potency | activity change, negative = inhibition |
| --- | --- | --- |
| O=C(CCNC(=O)c1ccc(Br)cc1)Nc1ccccc1N1CCCCC1 | inconclusive [inhibitor, full curve, poor fit] | – |
| COc1cccc(-n2c(=S)sc3c(=O)n(-c4ccccc4OC)c(=S)[nH]c32)c1 | inconclusive [inhibitor, single point] | – |
| CCCCNC(=O)CS(=O)Cc1nc(-c2ccc(C)cc2)oc1C (stereo not drawn) | inconclusive [inhibitor, full curve, poor fit] | – |
| O=C(CCN1CCOCC1)c1ccccc1 | inconclusive [inhibitor, full curve] | – |
| CCC1Oc2ccc(C)cc2N(CC(=O)N(Cc2cccnc2)Cc2ccc(C)o2)C1=O (stereo not drawn) | inconclusive [inhibitor, full curve] | – |
| CC(C)C(C(=O)NCc1ccco1)N(Cc1ccco1)C(=O)CNS(=O)(=O)c1ccc(F)cc1 (stereo not drawn) | inconclusive [inhibitor, partial curve] | – |
| CC1CC1C(=O)Nc1nc(-c2cccs2)c(-c2cccs2)s1 (stereo not drawn) | inconclusive [inhibitor, full curve, poor fit] | – |
| CCOC(=O)c1cc(-c2ccc(F)cc2)n(CCC(=O)NCc2ccc(C)cc2)c1C | – | inactive: 4.76% |
| CN1CCN(C(=O)C2CCC(CNS(=O)(=O)c3cccc4cccnc34)CC2)CC1 (stereo not drawn) | inconclusive [inhibitor, single point] | – |
| N#CCCN(C(=O)COC(=O)c1ccc(S(=O)(=O)N2CCCC2)cc1)c1cccc(Cl)c1 | inconclusive [inhibitor, single point] | – |
| O=C(NCCN1CCOCC1)c1ccc(Cl)c(S(=O)(=O)N2CCOCC2)c1 | – | inactive: -3.03% |
| COc1ccc(OCC(O)CN(C)C(=O)C(C)Oc2ccccc2)cc1 (stereo not drawn) | inconclusive [inhibitor, full curve, poor fit] | – |
| CN1c2ccccc2C(=O)NC1c1ccc([N+](=O)[O-])s1 (stereo not drawn) | – | inactive: 1.37% |
| Cc1cccnc1NC(=O)c1ccc(Br)o1 | inconclusive [inhibitor, full curve, poor fit] | – |
| CNC(=S)N/N=C/c1cc(Br)c(OCc2ccncc2)c(OC)c1 | – | inactive: -9.17% |
| COc1ccc(C(=O)N2CCCC(CCC(=O)NCc3ccccc3F)C2)c(OC)n1 (stereo not drawn) | – | inactive: -11% |
| O=C(CSc1ccc2nnc(-c3ccncc3)n2n1)Nc1ccc2c(c1)OCO2 | inconclusive [inhibitor, partial curve, poor fit] | – |
| CCOc1ccc(CC(=O)N/N=C(\C)c2cccnc2)cc1OCC | inconclusive [inhibitor, full curve, poor fit] | – |
| COc1ccc2oc(=O)c(-c3nc4ccc(C)cc4[nH]3)cc2c1 | – | inactive: 10.3% |
| COc1ccc(C(=O)N2CCC(=O)N(C(CO)Cc3ccccc3)CC2)cc1 (stereo not drawn) | inconclusive [inhibitor, partial curve] | – |
| COc1ccc(C(=O)C(CCCCC(CN(C)C)C(=O)c2ccc(OC)cc2)CN(C)C)cc1 (stereo not drawn) | inconclusive [inhibitor, full curve, poor fit] | – |
| CN1CCN(S(=O)(=O)c2ccc(Nc3ccc(F)cc3)c([N+](=O)[O-])c2)CC1 | inconclusive [inhibitor, full curve, poor fit] | – |
| CC1CN(C(=O)Nc2ccc3snnc3c2)c2ccccc21 (stereo not drawn) | inconclusive [inhibitor, full curve, poor fit] | – |

| Structure (SMILES) | Potency | activity change, negative = inhibition |
| --- | --- | --- |
| Cc1ccc(-n2ccnc(NCc3cccs3)c2=O)cc1C | – | inactive: 9.51% |
| Cc1cccc(-n2nnnc2SCC(=O)NCC2(N3CCOCC3)CCCCC2)c1C | – | inactive: -4.97% |
| COc1ccccc1NC(=O)C1(C)Cc2ccccc2C(=O)O1 (stereo not drawn) | inconclusive [inhibitor, full curve] | – |
| COc1cccc(NS(=O)(=O)c2ccc3[nH]cc(C(=O)NCCc4ccc(C)cc4)c(=O)c3c2)c1 | – | inactive: -13.2% |
| CCOc1ccc(S(=O)(=O)N(CC)CC(=O)N2CCCC2)cc1 | inconclusive [inhibitor, full curve, poor fit] | – |
| O=C(COC(=O)/C=C/c1c(F)cccc1Cl)NCC1CCCO1 (stereo not drawn) | inconclusive [inhibitor, partial curve, poor fit] | – |
| CCN(C(=O)Cc1cccs1)c1nnc(-c2cc(OC)c(OC)c(OC)c2)s1 | inconclusive [inhibitor, single point] | – |
| CCOC(=O)C1(CCCc2ccccc2)CCN(Cc2nccn2CC)CC1 | – | inactive: 5.82% |
| CCn1cc(C(=O)NCc2ccco2)c2cc(OC)c(OC)cc2c1=O | – | inactive: 0.788% |
| CCOC(=O)c1cc2occc2n1CC(=O)NCCOC | inconclusive [inhibitor, single point] | – |
| CC(C)NC(=O)CSc1nnc(COc2ccccc2Cl)o1 | inconclusive [inhibitor, single point] | – |
| CN(C)CCN(C(=O)c1ccc(S(=O)(=O)N(C)c2ccccc2)cc1)c1nc2cc3c(cc2s1)OCO3 | – | inactive: 3.69% |
| CCC(=O)c1ccc(OCC(O)CN2CCOCC2)cc1 (stereo not drawn) | inconclusive [inhibitor, partial curve] | – |
| CC(OC(=O)c1cccc(-n2cnnn2)c1)C(=O)c1ccccc1 (stereo not drawn) | inconclusive [inhibitor, full curve] | – |
| N#CC1=C(N)Oc2c(oc(CO)cc2=O)C12C(=O)Nc1ccc(Cl)cc12 (stereo not drawn) | inconclusive [inhibitor, partial curve, poor fit] | – |
| O=C(CCCCC(=O)NC1CCCC1)NC1CCCC1 | inconclusive [inhibitor, partial curve] | – |
| COc1ccccc1Cc1nnc(NC(=O)C2CCN(C(=O)c3ccco3)CC2)s1 | – | inactive: -2.11% |
| CCOc1ccccc1CN1CCNC(=O)C1CC(=O)N(C)CCC1CCOCC1 (stereo not drawn) | inconclusive [inhibitor, partial curve] | – |
| Cc1ccc(C)n1-c1ccccc1N | inconclusive [inhibitor, single point] | – |
| CC(=O)Nc1ccc(C=C(C(C)=O)C(C)=O)cc1 | – | inactive: 2.27% |
| C[C@@H](C(=O)NCc1ccco1)N1C(=O)N2CCc3c([nH]c4ccccc34)[C@@]2(C)C1=O | inconclusive [inhibitor, full curve, poor fit] | – |
| O=C(N/N=C/c1ccc([N+](=O)[O-])cc1)c1c[nH]c2ccccc12 | inconclusive [inhibitor, partial curve] | – |
